Source: the supplement of paper PMC8728848
The other results are listed elsewhere or left out.

Legend:
Assay in all cases: glycan array binding signal (z-score within array); higher = stronger binding
Settings in all cases: glycan notation: IUPAC condensed, linker removed; mutation: D151N
[1] = target: HexA(a1-3)GalNAc4S(b1-4)GlcA(b1-3)GalNAc4S(b1-4)GlcA(b1-3)GalNAc4S(b1-4)GlcA(b1-3)GalNAc4S(b1-4)GlcA(b1-3)GalNAc4S(b1-4)GlcA(b1-3)GalNAc4S(b1-4)GlcA(b1-3)GalNAc4S(b1-4)GlcA(b1-3)GalNAc4S
Procedure, shortened: (§1)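 Glycan array data came from 3228 arrays in the Consortium for Functional Glycomics database, and only arrays with an available protein sequence were kept. Glycan names were put into IUPAC-condensed notation, and columns mapping to the same glycan were averaged. The binding signal is a within-array Z-score, averaged across arrays of one protein sequence run at different concentrations or buffers and across linkers. A negative Z-score can be read as non-binding.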

[2] = target: HexA(a1-3)GalNAc4S(b1-4)IdoA(a1-3)GalNAc4S(b1-4)IdoA(a1-3)GalNAc4S(b1-4)IdoA(a1-3)GalNAc4S(b1-4)IdoA(a1-3)GalNAc4S(b1-4)IdoA(a1-3)GalNAc4S(b1-4)IdoA(a1-3)GalNAc4S(b1-4)IdoA(a1-3)GalNAc4S
Procedure, shortened: as §1

[3] = target: HexA(a1-3)GalNAc6S(b1-4)GlcA(b1-3)GalNAc6S(b1-4)GlcA(b1-3)GalNAc6S(b1-4)GlcA(b1-3)GalNAc6S(b1-4)GlcA(b1-3)GalNAc6S(b1-4)GlcA(b1-3)GalNAc6S(b1-4)GlcA(b1-3)GalNAc6S(b1-4)GlcA(b1-3)GalNAc6S
Procedure, shortened: as §1

[4] = target: HexA2S(a1-4)GlcNS6S(a1-4)IdoA2S(a1-4)GlcNS6S(a1-4)IdoA2S(a1-4)GlcNS6S(a1-4)IdoA2S(a1-4)GlcNS6S(a1-4)IdoA2S(a1-4)GlcNS6S(a1-4)IdoA2S(a1-4)GlcNS6S(a1-4)IdoA2S(a1-4)GlcNS6S(a1-4)IdoA2S(a1-4)GlcNS6S(a1-4)IdoA2S
Procedure, shortened: as §1

[5] = target: Man(a1-2)Man
Procedure, shortened: as §1

[6] = target: Man(a1-2)Man(a1-2)Man(a1-3)[Man(a1-2)Man(a1-3)[Man(a1-2)Man(a1-6)]Man(a1-6)]Man(b1-4)GlcNAc(b1-4)GlcNAc
Procedure, shortened: as §1

[7] = target: Man(a1-2)Man(a1-2)Man(a1-3)[Man(a1-2)Man(a1-6)[Man(a1-3)]Man(a1-6)]Man(b1-4)GlcNAc(b1-4)GlcNAc
Procedure, shortened: as §1

[8] = target: Man(a1-2)Man(a1-2)Man(a1-3)[Man(a1-3)[Man(a1-6)]Man(a1-6)]Man(b1-4)GlcNAc(b1-4)GlcNAc
Procedure, shortened: as §1

[9] = target: Man(a1-2)Man(a1-3)[Man(a1-2)Man(a1-6)[Man(a1-3)]Man(a1-6)]Man(b1-4)GlcNAc(b1-4)GlcNAc
Procedure, shortened: as §1

[10] = target: Man(a1-2)Man(a1-3)[Man(a1-3)[Man(a1-6)]Man(a1-6)]Man(b1-4)GlcNAc(b1-4)GlcNAc
Procedure, shortened: as §1

[11] = target: Man(a1-3)Man
Procedure, shortened: as §1

[12] = target: Man(a1-3)Man(a1-6)[Man(a1-3)]Man(b1-4)GlcNAc(b1-4)GlcNAc
Procedure, shortened: as §1

[13] = target: Man(a1-3)Man(b1-4)GlcNAc
Procedure, shortened: as §1

[14] = target: Man(a1-3)[Man(a1-6)]Man
Procedure, shortened: as §1

[15] = target: Man(a1-3)[Man(a1-6)]Man(a1-6)Man(b1-4)GlcNAc(b1-4)GlcNAc
Procedure, shortened: as §1

[16] = target: Man(a1-3)[Man(a1-6)]Man(a1-6)[Man(a1-3)]Man
Procedure, shortened: as §1

[17] = target: Man(a1-3)[Man(a1-6)]Man(a1-6)[Man(a1-3)]Man(b1-4)GlcNAc(b1-4)GlcNAc
Procedure, shortened: as §1

[18] = target: Man(a1-3)[Man(a1-6)]Man(b1-4)GlcNAc(b1-4)GlcNAc
Procedure, shortened: as §1

[19] = target: Man(a1-3)[Man(a1-6)]Man(b1-4)GlcNAc(b1-4)[Fuc(a1-6)]GlcNAc
Procedure, shortened: as §1

[20] = target: Man(a1-6)Man
Procedure, shortened: as §1

[21] = target: Man(a1-6)Man(b1-4)GlcNAc(b1-4)GlcNAc
Procedure, shortened: as §1

[22] = target: Man(b1-4)GlcNAc
Procedure, shortened: as §1

[23] = target: Neu5Ac(a2-3)Gal(b1-4)GlcNAc(b1-2)Man(a1-3)[Neu5Ac(a2-3)Gal(b1-4)GlcNAc(b1-2)Man(a1-6)]Man(b1-4)GlcNAc(b1-4)[Fuc(a1-6)]GlcNAc
Procedure, shortened: as §1

[24] = target: Neu5Ac(a2-6)Gal(b1-4)GlcNAc(b1-2)Man(a1-3)[Neu5Ac(a2-6)Gal(b1-4)GlcNAc(b1-2)Man(a1-6)]Man(b1-4)GlcNAc(b1-4)GlcNAc
Procedure, shortened: as §1

[25] = target: Xyl(b1-2)[Man(a1-3)][Man(a1-6)]Man(b1-4)GlcNAc(b1-4)GlcNAc
Procedure, shortened: as §1

[26] = target: Xyl(b1-2)[Man(a1-3)][Man(a1-6)]Man(b1-4)GlcNAc(b1-4)[Fuc(a1-3)]GlcNAc
Procedure, shortened: as §1

B1: ZG16p (Homo sapiens), O60844 (protein)
chain: ARSSSYSGEYGGGGGKRFSHSGNQLDGPITALRVRVNTYYIVGLQVRYGKVWSDYVGGRNGDLEEIFLHPGESVIQVSGKYKWYLKKLLFVTDKGRYLSFGKDSGTSFNAVPLHPNTVLRFISGRSGSLINAIGLHWDVYPSSCSRC
- glycan array binding signal (z-score) [1]: 5.03
- glycan array binding signal (z-score) [2]: -0.565
- glycan array binding signal (z-score) [3]: -0.218
- glycan array binding signal (z-score) [4]: 0.768
- glycan array binding signal (z-score) [5]: -0.565
- glycan array binding signal (z-score) [6]: -0.165
- glycan array binding signal (z-score) [7]: 0.128
- glycan array binding signal (z-score) [8]: -0.403
- glycan array binding signal (z-score) [9]: -0.565
- glycan array binding signal (z-score) [10]: -0.565
- glycan array binding signal (z-score) [11]: -0.514
- glycan array binding signal (z-score) [12]: -0.482
- glycan array binding signal (z-score) [13]: -0.565
- glycan array binding signal (z-score) [14]: -0.565
- glycan array binding signal (z-score) [15]: -0.565
- glycan array binding signal (z-score) [16]: -0.333
- glycan array binding signal (z-score) [17]: -0.425
- glycan array binding signal (z-score) [18]: -0.522
- glycan array binding signal (z-score) [19]: -0.565
- glycan array binding signal (z-score) [20]: -0.565
- glycan array binding signal (z-score) [21]: -0.565
- glycan array binding signal (z-score) [22]: -0.565
- glycan array binding signal (z-score) [23]: -0.565
- glycan array binding signal (z-score) [24]: -0.565
- glycan array binding signal (z-score) [25]: -0.236
- glycan array binding signal (z-score) [26]: -0.498
